Results taken from PubChem BioAssay AID1508624 (National Center for Advancing Translational Sciences (NCATS), 2021).
Out of some 48,000 compounds screened, about 120 (0.25%) were called active. About 4% were inconclusive and are not listed. Calls come from the whole dose curve; as a rule, active = well fitted activation curve with a large enough effect; inconclusive = small, poorly fitted or top-dose-only effect, or another doubt; inactive = no such curve, though single readings can be large or run the other way. The list shows a part of the results.

assay: Primary qHTS for Identification of Small Molecule Activators of Huntingtin-Antisense Promoter Activity; settings: HEK293 HTT-AS promoter firefly luciferase reporter, 24 h; series mostly up to 57.5 µM; activity change, positive = activation: at the top concentration; note: nearly all actives have a fitted effect of over 55% in size
Outline: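 Firefly luciferase signal from promoter-reporter HEK293 cells was scaled between vehicle (0%) and zero RLU (-100%). Compounds were tested at final concentrations of up to 57.5 uM over 24 h at 37 degrees C. PTC124 at 50 uM final served as control inhibitor.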

Activity change, positive = activation, inactive:
CCCCN(CC)CCCNC(=O)CS(=O)(=O)Cc1nc(-c2ccc(C)cc2)oc1C -16.6%
CCCOc1ccc(C(=O)Nc2ccc3oc(-c4ccncc4)nc3c2)cc1 -16%
O=C(Nc1nnc(N2CCCCCC2)s1)Nc1cc(F)ccc1F 15.3%
CCOCCCN(Cc1ccco1)S(=O)(=O)c1cc2c(cc1Cl)NC(=O)CO2 -19.6%
Cc1c2cnn(CC(=O)NCc3ccc(F)cc3)c(=O)c2c(C)n1Cc1cccc(Cl)c1 -36.8%
COc1cc(NC(=O)CSc2nnc(C)n3c2cc2oc(C)cc23)cc(OC)c1 -7.79%
Cc1ccccc1-c1noc(-c2ccc(N3CCCCC3)c([N+](=O)[O-])c2)n1 -63.9%
COCCN(Cc1cccs1)S(=O)(=O)c1cc(-c2cc(C)no2)ccc1C -37.4%
Cn1nnc2c(N3CCN(c4cccc(Cl)c4)CC3)ncnc21 -5.69%
COCCCNC(=O)c1c(NC(=O)Cc2coc3c(C)c(C)ccc23)sc2c1CCCC2 -16.6%
CCC(Sc1nnc2c(n1)[nH]c1ccccc12)C(=O)Nc1nnc(C(C)C)s1 (stereo not drawn) -22.3%
CCCCOC(=O)c1c(N)n(-c2ccc(OC)cc2OC)c2nc3ccccc3nc12 -1.91%
Cc1ccc(Sc2c(C)nn(-c3ccccc3)c2OC(=O)C(C)(C)C)cc1 -13.1%
CCOc1ccc(NC(=O)CC2C(=O)N(c3ccc(F)cc3)C(=O)N2Cc2ccc(OC)c(OC)c2)cc1 (stereo not drawn) 12.2%
COc1ccc(OC)c(NS(=O)(=O)c2cc3c(cc2Cl)N(C(C)=O)CCO3)c1 -27.8%
COC(=O)c1c(NC(=O)C(C)Oc2ccc(Cl)c(C)c2)sc(C)c1C (stereo not drawn) 9.77% [at 11.5 µM, percent change from vehicle, -100% = no light]
CCN1C(=O)c2ccccc2S(=O)c2ccc(C(=O)NCc3ccc(OC)cc3)cc21 (stereo not drawn) -15.1%
O=C(CSc1nc2cc(C(=O)NC3CCCC3)ccc2c(=O)n1CC1CCCO1)c1cccc(Cl)c1 (stereo not drawn) -14.3%
Cc1ccc(C)c2sc(NC(=O)c3ccc(S(=O)(=O)N4CCC(C)CC4)cc3)nc12 -29.9%
COc1ccc(OC)c(CCNC(=O)CS(=O)(=O)Cc2nc(-c3cccc(Cl)c3)oc2C)c1 -12.2%
COc1ccc(CCNc2oc(/C=C/c3cc(OC)c(OC)c(OC)c3)nc2C#N)cc1OC -11.5%
CCOC(=O)c1ccc(N2C(=O)c3n[nH]c(-c4cccs4)c3C2c2ccc(OCC)cc2)cc1 (stereo not drawn) -42.2%
CCOc1ccccc1NC(=O)NCc1ccc2c(c1)CCN2C(=O)c1ccccc1 -51.5%
COc1ccc(/C=C\c2onc(C)c2S(=O)(=O)N2CCC(C(=O)Nc3ccc(F)cc3F)CC2)cc1 -15%
Cc1ccc(-c2nc3nc(C)cc(N4CCN(c5cccc(C)c5C)CC4)n3n2)cc1 5.24%
CN(C)c1ccc(CN(Cc2ccco2)C(=O)c2ccc(C(C)(C)C)cc2)cc1 -21.9%
Cc1oc(-c2cccc(Cl)c2)nc1CSc1nncn2c1cc1occc12 -16.5%
COc1ccc(CC(=O)Nc2ccc3nc(Nc4ccc(OC)cc4)cc(C)c3c2)cc1 -41%
CCc1ccc(CNC(=O)c2cc(=O)[nH]c3ccc(S(=O)(=O)N4CCCCC4)cc23)cc1 -4.16%
Cc1c(Cl)ccc2sc(N3CCN(C(=O)C(C)C)CC3)nc12 -3.84%
CCOC(=O)c1c(C)oc2nc(C)nc(Nc3ccc(C)c(Cl)c3)c12 -16.6%
CCOC(=O)c1c(NC(=O)c2cc(C(C)C)on2)sc(C(C)=O)c1C -5.16%
COc1cccc(CNC(=O)c2cc(C)nc3c2c(C)nn3-c2ccc(C)cc2)c1 -21.7%
COc1cccc(-n2c(=O)c3c(C)c(C)sc3n(CC(=O)NCCc3ccc(OC)c(OC)c3)c2=O)c1 0.386%
Cc1ccc(Cn2c(C(=O)O)c(CNCc3ccc(OC(C)C)cc3)c3ccc(C)cc32)cc1 -61.4%
COc1ccc(OC)c(NC(=O)CSc2ccc(-c3cccs3)nn2)c1 -12.2%
COc1cc(OC)c(NC(=O)C2CCN(S(=O)(=O)c3c(C)noc3/C=C/c3c(C)cc(C)cc3C)CC2)cc1Cl 16.9%
CN(Cc1ccccc1)C(=O)c1cn(C)c2ccc(S(=O)(=O)N3CCCCC3)cc2c1=O -0.982% [at 11.5 µM, percent change from vehicle, -100% = no light]
COc1cccc(OCc2nc3ccccc3n2CCOc2ccc(C)cc2)c1 -7.14%
COc1ccc2[nH]cc(CCNC(C)=O)c2c1
CC12CN3CC(c4ccccc4)(CN(C1)C3c1ccc(O)cc1)C2=O (stereo not drawn) -13.7%
CCOC(=O)c1c(NC(=O)C(C)Sc2cn(CCNC(=O)c3c(F)cccc3F)c3ccccc23)sc2c1CCC2 (stereo not drawn) -21.4%
Cn1c(=O)oc2cc(S(=O)(=O)NC(Cc3ccccc3)C(=O)Nc3ccc(F)cc3)ccc21 (stereo not drawn) -25.1%
CCn1c(C(=O)NCc2ccc(F)cc2)cc2oc3ccccc3c21 -33.4%
CCC1(C)CC(=O)c2c(ccc3oc(C(=O)NCc4ccccc4)c(C)c23)O1 (stereo not drawn) 22.1%
Cc1ccc2oc3c(c(=O)c2c1)C(c1ccc(O)cc1)N(Cc1ccc2c(c1)OCO2)C3=O (stereo not drawn) -21.4%
CCOc1ccc(C(=O)c2cn(CC(=O)Nc3ccc(OC)cc3)c3cc4c(cc3c2=O)OCCO4)cc1 -11.2%
COc1ccc2[nH]c(=O)c(CN(C(=O)c3cccc(Cl)c3)c3ccccc3C)cc2c1 0.163%
CC(C)CCn1c(=O)c2cccnc2n(CC(=O)Nc2ccc(F)cc2)c1=O -22.2%
Cc1cc2nnc(SCc3ccc(F)cc3)n2c2ccccc12 -16.2%
CC1CN(c2ccc(Cl)cc2)c2nc3c(c(=O)n(CC(=O)O)c(=O)n3C)n2C1 (stereo not drawn) 0.625%
COc1ccc2occ(CC(=O)Nc3ccc(S(=O)(=O)Nc4nccc(C)n4)cc3)c2c1 15.3%
Cc1ccc(CNC(=O)c2sc3nc[nH]c(=O)c3c2C)cc1 -4.93%
CN1CCN(C2(CNC(=O)c3ccc(C(C)(C)C)cc3)CCCCC2)CC1 -15.8%
C#CCn1c(C2CC(=O)N(c3ccc(OC)cc3)C2)nc2ccccc21 (stereo not drawn) 13%
COc1ccc(OCC(=O)Nc2nnc(S(=O)(=O)N3CCc4ccccc43)s2)cc1 1.89%
Cc1cccc(C)c1Nc1c(-c2ccccc2F)nc2cccc(C)n12 -31.7%
CCOc1ccc(C(=O)/C=C/c2cn(CC(O)CN3CCCCCC3)c3ccccc23)cc1 (stereo not drawn) -13.9%
